The whole screen tested about 310,000 compounds, of which about 2,200 (0.71%) showed an effect of 50% or more. The effect is printed as a negative number. This is one part of the list.

For this experiment, the target named is human ether-à-go-go-related gene (hERG) potassium channel (human, UniProt Q12809). The experiment in a line: primary screen, population patch clamp on CHO cells stably expressing hERG.
Chain of human ether-à-go-go-related gene (hERG) potassium channel (Q12809 whole entry, looked up): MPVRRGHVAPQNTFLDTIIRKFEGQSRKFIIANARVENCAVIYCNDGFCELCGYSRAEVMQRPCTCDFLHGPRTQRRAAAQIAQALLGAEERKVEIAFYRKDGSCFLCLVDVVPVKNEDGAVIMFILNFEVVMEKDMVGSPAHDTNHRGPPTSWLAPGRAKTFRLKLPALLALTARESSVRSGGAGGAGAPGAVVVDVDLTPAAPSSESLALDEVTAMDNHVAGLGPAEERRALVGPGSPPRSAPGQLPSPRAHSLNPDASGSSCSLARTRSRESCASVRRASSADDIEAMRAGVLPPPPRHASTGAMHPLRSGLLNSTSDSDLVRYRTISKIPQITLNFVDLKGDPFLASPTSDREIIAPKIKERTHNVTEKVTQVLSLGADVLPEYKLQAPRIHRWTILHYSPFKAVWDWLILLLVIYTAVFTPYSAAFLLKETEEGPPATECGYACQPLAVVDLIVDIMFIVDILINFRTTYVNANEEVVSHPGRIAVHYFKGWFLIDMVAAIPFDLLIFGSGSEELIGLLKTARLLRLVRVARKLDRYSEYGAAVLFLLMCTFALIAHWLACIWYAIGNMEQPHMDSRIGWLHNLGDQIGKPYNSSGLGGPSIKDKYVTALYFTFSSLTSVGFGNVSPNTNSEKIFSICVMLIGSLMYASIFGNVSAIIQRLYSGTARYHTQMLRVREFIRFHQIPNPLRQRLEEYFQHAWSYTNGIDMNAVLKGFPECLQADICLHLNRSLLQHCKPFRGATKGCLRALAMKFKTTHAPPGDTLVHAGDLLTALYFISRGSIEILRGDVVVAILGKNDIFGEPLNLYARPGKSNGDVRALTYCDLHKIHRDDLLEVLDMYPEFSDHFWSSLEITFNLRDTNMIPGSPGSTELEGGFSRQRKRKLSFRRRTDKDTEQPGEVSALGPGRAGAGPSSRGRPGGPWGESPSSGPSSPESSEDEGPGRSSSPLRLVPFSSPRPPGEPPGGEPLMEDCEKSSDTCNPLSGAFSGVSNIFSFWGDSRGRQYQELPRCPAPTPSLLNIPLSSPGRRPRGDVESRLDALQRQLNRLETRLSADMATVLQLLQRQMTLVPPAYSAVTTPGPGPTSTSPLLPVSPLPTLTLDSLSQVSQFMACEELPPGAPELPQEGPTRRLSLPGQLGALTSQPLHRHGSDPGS
As for `CCOC(=O)c1c(C)c(C(=O)N2CCN(c3ccc(F)cc3)CC2)c(C)n1C`, the “hERG current change (%, negative = inhibition) at 1uM” value is -4.72%.
The value for `CC(=O)OCc1c(F)c(F)c(-n2nc(C)cc2C)c(F)c1F` was 7.43%; that for `CCOc1ccc(NC(=O)CCC(=O)N/N=C2\CCCc3ccccc32)cc1` was 0.86%; that for `O=C(Cn1c(NCCO)nc2ccccc21)NCC1CCCO1` (centres unmarked) was 14.7%.
Turning to `COc1ccccc1N(CC(=O)N/N=C/c1ccc(C(=O)O)cc1)S(=O)(=O)c1ccc(C)cc1`, the “hERG current change (%, negative = inhibition) at 1uM” value stood at 17.9%.
As for `CCOC(=O)c1nc(Nc2ccc(N3CCOCC3)cc2)c2ccccc2n1`, the “hERG current change (%, negative = inhibition) at 1uM” value is reported as 15.1%.
With `Cc1cccc(C)c1NC(=O)CSc1nnc(-c2ccoc2C)n1CCc1ccccc1` the figure was -14.6%; with `Cn1c(=O)c2c(nc(SCC(=O)N3CCc4ccccc4C3)n2C)n(C)c1=O`, 6.99%.
As for `COc1cc(NC(=S)NCCCN(C)C)c(OC)cc1NC(=O)c1ccco1`, the “hERG current change (%, negative = inhibition) at 1uM” value was found to be 7.72%.
`CN(C)c1ccc(N2C(=NC(=O)CCc3ccccc3)SC3CS(=O)(=O)CC32)cc1` (centres unmarked): the “hERG current change (%, negative = inhibition) at 1uM” value is -4.33%.
With `O=C(Cn1c(=O)c2cccn2c2ccccc21)Nc1cc(F)ccc1F`, the “hERG current change (%, negative = inhibition) at 1uM” value is 17.4%.
The value for `CCCNC(=O)c1cc2c(C(F)(F)F)nn(C)c2s1` was 16.2%; that for `O=C(c1ccco1)N(Cc1ccc([N+](=O)[O-])cc1)c1ccc(Cl)cc1` was 6.74%.
Turning to `CCOC(=O)/C(C#N)=C/c1cn(CCC(=O)O)nc1-c1ccc(Br)cc1`, the “hERG current change (%, negative = inhibition) at 1uM” value is given as 15.8%.
Take `O=C(O)c1ccc(CNC(=O)c2ccc(Br)o2)cc1`: the “hERG current change (%, negative = inhibition) at 1uM” value is 1.01%.
On to `CCC(=O)c1ccccc1OCCCN1CCC(Cc2ccccc2)CC1.O=C(O)C(=O)O`, for which the “hERG current change (%, negative = inhibition) at 1uM” value was -87%.
With `Cc1[nH]c2ccc(C(=O)OC(C)C(=O)NCc3ccccc3)cc2c1C` (centres unmarked) the figure was 11.1%; with `O=C(N/N=C/c1cccc([N+](=O)[O-])c1)C1COc2ccccc2O1` (centres unmarked), 4.07%; with `CC(C)CC(=O)N1CCN(Cc2ccccc2Br)CC1`, 2.66%.
For `O=C(c1ccccc1)N1CCC(=O)N(C(CO)Cc2ccccc2)CC1` (centres unmarked), the “hERG current change (%, negative = inhibition) at 1uM” value was 4.6%.
On to `COc1ccc(-c2cnc(OC(C)(C)C)nc2OC(C)(C)C)cc1OC`, for which the “hERG current change (%, negative = inhibition) at 1uM” value came out at 12.6%.
Take `Cc1ccc(S(=O)(=O)N2CCc3ccccc3C2)cc1`: the “hERG current change (%, negative = inhibition) at 1uM” value was determined as 12.2%.
Turning to `C=CCN1CCN(c2ccncc2S(=O)(=O)N2CCOCC2)CC1`, the “hERG current change (%, negative = inhibition) at 1uM” value is on record as -0.975%.
The value for `C/C(=N\Nc1cc(Cl)nc(C)n1)c1ccccc1` was 2.08%; that for `Cc1ccc(C2Nc3ccccc3C(=O)N2Cc2ccco2)cc1` (centres unmarked) was 0.0211%; that for `c1ccc(-c2nnc3sc(-c4ccncc4)nn23)cc1` was 11.6%.
`CCN(CC(=O)Nc1ccc(NC(C)=O)cc1)C(=O)/C=C/c1c(C)nn(-c2ccc(F)cc2)c1C`: the “hERG current change (%, negative = inhibition) at 1uM” value came to 13.6%.
In the case of `COc1ccc(CCNC(=O)CCC(=O)N2CCN(S(=O)(=O)c3ccc(Cl)cc3)CC2)cc1OC`, the “hERG current change (%, negative = inhibition) at 1uM” value is 3.85%.
Take `CCOc1ccc2nnc(-c3ccc(Br)cc3)n2n1`: the “hERG current change (%, negative = inhibition) at 1uM” value stood at 1.81%.
As to `N#Cc1c(C(F)(F)F)cc(-c2ccc(F)cc2)nc1SCC(=O)O`, the “hERG current change (%, negative = inhibition) at 1uM” value came out at 9.97%.
`COC(=O)COc1ccc2c(c1)O/C(=C\c1ccco1)C2=O`: the “hERG current change (%, negative = inhibition) at 1uM” value is given as 12.6%.
On to `CCOc1ccccc1NC(=O)C1(S(=O)(=O)c2ccc(Cl)cc2)CC1`, for which the “hERG current change (%, negative = inhibition) at 1uM” value is given as 3.47%.
As to `OCCNCCOc1ccccc1F`, the “hERG current change (%, negative = inhibition) at 1uM” value was 3.87%.
Consider `C=C(C)CSc1nc2nc(C)c(Br)cc2[nH]1`, for which the “hERG current change (%, negative = inhibition) at 1uM” value was found to be 6.49%.
With `O=C(OCc1cc2ccccc2[nH]c1=O)c1ccco1`, the “hERG current change (%, negative = inhibition) at 1uM” value came to 10.7%.
With `CCC(=O)NCCN1CCN(C(=O)CC)CC1` the figure was 8.17%; with `CCOc1ccc(N2C(=O)CN(CC(=O)OC)C2=S)cc1`, 3.72%.
Take `Cc1ccc(OCC(=O)c2cc(C)n(C3CC3)c2C)c([N+](=O)[O-])n1`: the “hERG current change (%, negative = inhibition) at 1uM” value was -7.47%.
The value for `O=C(Cc1c[nH]c2ccccc12)NCc1ccc(Cl)cc1Cl` was 1.33%; that for `CCOC(=O)C1(CC2CC2)CCN(C(=O)c2cccnc2C)CC1` was 7.55%.
In the case of `Cc1nc2ncnn2c(N2CCCC(C(=O)Nc3ccccc3Br)C2)c1C` (centres unmarked), the “hERG current change (%, negative = inhibition) at 1uM” value is on record as -7.8%.
Turning to `COc1ccc(NC(=O)C2CCC(CNS(=O)(=O)c3cccs3)CC2)cc1OC` (centres unmarked), the “hERG current change (%, negative = inhibition) at 1uM” value was determined as 2.15%.
Turning to `O=C(NCCCCCNC(=O)c1cccnc1)c1cccnc1`, the “hERG current change (%, negative = inhibition) at 1uM” value worked out at 8.71%.
As for `O=C(NC1CCN(Cc2ccccc2)CC1)C1CCN(S(=O)(=O)c2ccccc2)CC1`, the “hERG current change (%, negative = inhibition) at 1uM” value is recorded as 1.18%.

The record behind these values is publication PMC4336329 (PLoS ONE, 2015).
